# Reference: the supplement of paper PMC3334620
# The full ranking holds about 33,000 sequences; the median of “E-score (-0.5 to 0.5)” is about -0.017, and the highest 2% start at about 0.3. Some of the results follow.
# Target: T1, Sut1 (UniProt P53032)
# T1 sequence: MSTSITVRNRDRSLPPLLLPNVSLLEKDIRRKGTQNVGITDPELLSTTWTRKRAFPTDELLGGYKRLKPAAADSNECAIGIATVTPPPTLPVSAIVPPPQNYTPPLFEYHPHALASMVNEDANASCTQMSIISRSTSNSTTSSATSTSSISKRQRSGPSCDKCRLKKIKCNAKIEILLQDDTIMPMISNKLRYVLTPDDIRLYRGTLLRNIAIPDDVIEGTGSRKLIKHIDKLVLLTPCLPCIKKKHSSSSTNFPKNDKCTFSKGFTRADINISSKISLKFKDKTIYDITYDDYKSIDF
# Assay: PBM E-score (8-mer binding enrichment) (E-score (-0.5 to 0.5)); higher = stronger / more preferred TF binding; most listed sequences are background and not binding sites
# Conditions: protein concentration: 200 nM; construct: GST-full length
# In short: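 Using PURExpress in vitro transcription/translation, GST-tagged yeast transcription factors were made in full-length or DNA-binding-domain form. These were applied at about 100-200 nM to double-stranded universal all-10-mer Agilent arrays, and bound protein was detected with fluorescent anti-GST. Scans were normalised with masliner before the Universal PBM Analysis Suite assigned E-scores to ungapped eight-base words pooled with their reverse complements.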
row,Sequence,PBM E-score
1,CCTGGCAC,-0.256
2,CTATTAAA,0.0826
3,TCGTTCAA,-0.0686
4,GAATCCCA,0.0678
5,CAGGTCTC,-0.172
6,TATCCCGA,-0.00656
7,ATCTTAAC,0.108
8,CGCGCGGC,0.0401
9,CAAAAAGC,0.259
10,AGGTTTAG,0.0298
11,AACAATTC,0.213
12,ATTGTCCA,-0.0211
13,ACAGGGTC,-0.117
14,AGGGTACA,-0.0378
15,ATCTTGAA,0.102
16,GTTTATGA,0.136
17,CGTCTTAA,0.0646
18,CTTTTACC,0.149
19,CTCTGGCA,-0.229
20,CTGTTGTC,0.0813
21,TAAGATAA,0.0591
22,TTCTTCAA,0.205
23,AATCAGCC,-0.0607
24,CAGTGAGA,0.077
25,AACGTTGT,0.0376

row,Sequence,PBM E-score
1,CGAAGACG,-0.112
2,CGCTTTTC,0.0913
3,GACAAGAC,-0.201
4,TCCAAACA,0.0698
5,CGATGTGA,-0.082
6,ATACCTGG,-0.266
7,AGCTTCTC,-0.219
8,CGGACAAA,0.286
9,GTCACGAA,0.05
10,GAACTTAC,0.00823
11,GGTGGCGA,-0.266
12,CACATACC,0.0756
13,AGTCGGTC,-0.0477
14,CGGTCTTA,0.071
15,AATGTTAC,0.113
16,CGGAACAA,0.285
17,AAAACGGC,0.0207
18,CTGGACGA,-0.369
19,AGCAAAAT,0.121
20,CGTGGGCC,-0.0428
21,CATGAATG,0.118
22,ATTATTAC,0.278
23,CCTAGGGC,-0.248
24,ATGTGCAG,-0.142
25,CCTTCTAA,0.034

row,Sequence,PBM E-score
1,ATATCATG,0.0236
2,CGAATACA,0.188
3,ATGCAGAA,0.077
4,GCAGTAAA,0.0571
5,AGTTTTCC,0.226
6,AGCTTAAC,0.0213
7,GCTGGCTA,-0.217
8,AAAACACG,0.149
9,ATATGTAG,0.104
10,CCAGCGGG,-0.13
11,GTAACCAC,-0.147
12,TGCGGCAA,-0.182
13,CTTCCTTC,-0.07
14,CATACTTC,-0.00145
15,AGAAAGAT,0.0929
16,AAACGCTG,-0.0876
17,ATTAGGGA,-0.0353
18,CTATGCTC,-0.249
19,ACGGTAGT,0.00498
20,AAGGTGTC,-0.141
21,GCCCACAC,-0.136
22,CGCAGGAG,-0.264
23,AATAGGGG,-0.00225
24,ATGACATG,-0.0203
25,CAGAGTAG,-0.18

row,Sequence,PBM E-score
1,ACAGGCGG,-0.216
2,AGGTACGG,-0.0665
3,CGCTGATA,0.00385
4,ACGGCTGG,-0.216
5,GCTTGGCA,-0.178
6,ACTGGCCT,-0.0518
7,TAAATATA,0.289
8,GACAGTCC,0.0519
9,ACGACAAG,-0.167
10,CCTAGTCA,-0.21
11,AAAGTGAC,0.111
12,GTCAAAAA,0.24
13,CTTCGAGA,-0.141
14,GTATGGCA,-0.116
15,GTCAGCTA,-0.149
16,CAGTATCA,-0.0758
17,ATGCCACG,-0.0512
18,GTGCGCGA,-0.195
19,CACACAAA,0.0659
20,AGAGGCAC,-0.167
21,CAGTTCAC,-0.065
22,ATATTGTG,-0.0184
23,ATTAACAG,0.0761
24,CTGAGCTA,-0.188
25,ACTTTTCG,0.243

row,Sequence,PBM E-score
1,TTAGAAAA,0.238
2,TAACTGAA,-0.0031
3,ACCACGGA,0.177
4,GCAGTGCA,-0.158
5,CACTTGTA,-0.0118
6,CCTGGCAG,-0.231
7,CCGTGGAA,0.00758
8,ACTGCAAA,0.0272
9,TATGCTGA,0.175
10,CCCTAACC,-0.148
11,CCTACTAA,-0.106
12,TGCGAGAA,-0.0708
13,CGAGCCCG,-0.187
14,CCGGTTCC,-0.0625
15,ACTTATCG,0.0437
16,ACCACTCT,-0.157
17,ACGTCGAC,0.0491
18,ATACCAAG,0.0542
19,CAACATTA,0.123
20,AGACTCGG,-0.0487
21,ACTCCTAC,0.0612
22,GCATAAGC,-0.116
23,CTGCCCAC,-0.291
24,CCCAGAGA,-0.247
25,ACCATACC,-0.219

row,Sequence,PBM E-score
1,AATATACC,0.0977
2,CATGTGTC,-0.192
3,AAAAGTTT,0.0651
4,ACGAGGAG,-0.0977
5,AAGTGGGC,-0.18
6,CCCTACGA,-0.185
7,CGACCTCA,-0.149
8,ATGAACCA,0.194
9,ATCAGCAT,0.107
10,AGTCTAAT,0.0885
11,AGGGTCTG,-0.239
12,GATTGACA,0.067
13,CCAAAGAA,0.0984
14,AGACATTC,-0.0169
15,CCTGTGCA,-0.242
16,CAGACCAG,-0.0969
17,CCACAGGC,-0.348
18,GCCACAAC,-0.0446
19,AGTACCGA,0.0697
20,AGAGCGCC,0.104
21,GATTGACC,-0.159
22,ACGAGCCA,-0.197
23,AAGCCCGC,0.00781
24,GACTGATC,0.0324
25,AGCCATCG,-0.224

row,Sequence,PBM E-score
1,ACTCGACC,-0.175
2,ATAGATAA,0.272
3,CACTGTAG,0.132
4,GGCAAGGA,0.0852
5,CAGCACTG,-0.0653
6,AAGAGAGC,-0.155
7,CCGGTAAA,0.206
8,CCATAAGC,-0.00945
9,AAGTCGCA,0.00847
10,ATGGCGCC,-0.262
11,AGACGGCA,-0.195
12,TATGTCAA,0.249
13,CCGATCCG,0.131
14,AATCGCGA,-0.0432
15,AAGCGGGC,-0.229
16,ATACCTCG,0.0427
17,CCTATCGC,-0.115
18,AAATTGTT,0.218
19,ATATGGTC,0.103
20,CCACGCAC,-0.164
21,CTCGCTTA,-0.00317
22,ATCTGCCA,-0.133
